# PubChem BioAssay AID624024 (Broad Institute, 2012)
# Records with an inconclusive call do not appear. The source holds more than one record for some entries. This list holds those alone. The source may hold further records. Values that stand side by side are repeats in other runs, samples, wells, individuals or studies. Records carry a tag for their origin. Letters count within one entry.
# Biological target: Scavenger receptor class B member 1 (Mus musculus) (UniProt Q61009)
# Assay: SR-BI HDL particle binding change, fluorescent HDL – cell-based, ldlA[mSR-BI] CHO, Alexa 488-HDL, powder samples, set 3, orthogonal assay for SR-BI HDL uptake inhibitor project, dose response (AID 624024)
# Settings: ldlA[mSR-BI] CHO cells, Alexa488-HDL binding fluorescence, 3 h
# Chain of UniProt Q61009 (Q61009 whole entry, looked up): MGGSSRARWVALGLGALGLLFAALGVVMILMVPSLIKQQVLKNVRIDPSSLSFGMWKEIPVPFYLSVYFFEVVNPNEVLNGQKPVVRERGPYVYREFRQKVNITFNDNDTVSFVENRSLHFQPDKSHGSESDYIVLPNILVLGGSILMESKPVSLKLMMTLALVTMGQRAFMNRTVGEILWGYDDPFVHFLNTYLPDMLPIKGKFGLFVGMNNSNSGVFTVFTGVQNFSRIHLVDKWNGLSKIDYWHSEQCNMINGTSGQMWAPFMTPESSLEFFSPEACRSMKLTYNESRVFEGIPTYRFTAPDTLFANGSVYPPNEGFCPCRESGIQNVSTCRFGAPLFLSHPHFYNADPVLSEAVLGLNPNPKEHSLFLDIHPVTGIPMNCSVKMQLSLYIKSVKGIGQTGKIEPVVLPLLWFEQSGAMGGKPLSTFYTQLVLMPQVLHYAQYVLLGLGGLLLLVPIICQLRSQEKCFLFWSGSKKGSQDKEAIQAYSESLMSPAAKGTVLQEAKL
structure (smiles),measurement,value
CC(C)NC(=O)Nc1ccc2c(c1)C(=O)N([C@H](C)CO)C[C@@H](C)[C@H](CN(C)S(=O)(=O)c1ccc(Cl)cc1)O2,AC40,18.6 nM [sample A] and 10.3 nM [sample B] and 442 nM [sample C]
